# Source: a collection of fitness landscapes (doi:10.1016/j.celrep.2020.107928)
# In all, about 81,000 sequences were measured (“one-hybrid fitness for binding parS DNA”: median about -0.17, highest 2% from about 0.51 on). The list shows a part of the results.
# B1: Caulobacter ParB omega fusion; a variant is named by its letters at X, in order, B8GW30 (parent)
# chain: MESVVVGEPGMSEGRRGLGRGLSALLGEVDAAPAQAPGEQLGGSREAPIEILQRNPDQPRRTFREEDLEDLSNSIREKGVLQPILVRPSPDTAGEYQIVAGERAWRAAQRAGLKTVPIMVRELDDLAVLEIGIIENVQRADLNVLEEALSYKVLMEKFERTQENIAQTIGKSXSHVANXMRLLXLPDEVQSYLVSGELTAXHARAIAAAADPVALAKQIIEGGLSVRETEALARKAPNLSAGKSKGGRPPRVKDTDTQALESDLSSVLGLDVSIDHRGSTGTLTITYATLEQLDDLCNRLTRGI
# Variants of: B1
# Assay: one-hybrid fitness for binding parS DNA (scaled: cognate 1, non-cognate 0); higher = stronger binding
# Conditions: with parS DNA site
# How it was run: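 Fitness is the rescaled log change in variant-to-wild-type read ratio, measured by Illumina sequencing of plasmids before and after bacterial one-hybrid selection. The scale puts cognate at 1 and non-cognate at 0. Selection of Caulobacter ParB libraries, four specificity codons randomised, took place in E. coli USO with a HIS3 reporter, site 19 bp from the promoter, over 48 hours at 37°C on M9-minus-histidine with 0.1 mM IPTG and 5 mM 3-AT.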
row,Variant,one-hybrid fitness for binding parS DNA
1,FYRK,≤ 0.2
2,TPFE,≤ 0.2
3,HYSF,≤ 0.2
4,LAWK,≤ 0.2
5,GNVR,≤ 0.2
6,DCMC,≤ 0.2
7,PNMS,≤ 0.2
8,KITR,≤ 0.2
9,PINT,≤ 0.2
10,TKKG,≤ 0.2
11,KTAK,≤ 0.2
12,EHSG,≤ 0.2
13,WLSV,≤ 0.2
14,KFRR,≤ 0.2
15,AVFV,≤ 0.2
16,TPKH,≤ 0.2
17,SRQK,≤ 0.2
18,VIPF,≤ 0.2
19,PNEV,≤ 0.2
20,LDKR,≤ 0.2
21,LSAW,≤ 0.2
22,RGRK,≤ 0.2
23,RNCN,0.304
24,IHGD,≤ 0.2
25,MTHT,≤ 0.2
26,QSEA,≤ 0.2

row,Variant,one-hybrid fitness for binding parS DNA
1,IDTM,≤ 0.2
2,SVRI,≤ 0.2
3,ALQE,≤ 0.2
4,RITS,0.992
5,TLDF,≤ 0.2
6,VNAC,≤ 0.2
7,RDWM,≤ 0.2
8,QMSG,≤ 0.2
9,QYKQ,≤ 0.2
10,DALT,≤ 0.2
11,QLAL,≤ 0.2
12,VGSL,≤ 0.2
13,DDRN,≤ 0.2
14,LVRI,≤ 0.2
15,ALAR,≤ 0.2
16,TSQN,≤ 0.2
17,FERC,≤ 0.2
18,FRAQ,≤ 0.2
19,SPAL,≤ 0.2
20,MWHC,≤ 0.2
21,PARV,≤ 0.2
22,QNTM,≤ 0.2
23,KCRR,≤ 0.2
24,TGHI,≤ 0.2
25,VQPG,≤ 0.2
26,GGGR,≤ 0.2

row,Variant,one-hybrid fitness for binding parS DNA
1,HLVM,≤ 0.2
2,DDNG,≤ 0.2
3,GCMQ,≤ 0.2
4,FPDG,≤ 0.2
5,LWLS,≤ 0.2
6,KPHF,≤ 0.2
7,NDWV,≤ 0.2
8,QGSH,≤ 0.2
9,RGRL,≤ 0.2
10,LMPM,≤ 0.2
11,TAYW,≤ 0.2
12,MAFV,≤ 0.2
13,GYCR,≤ 0.2
14,WIHC,≤ 0.2
15,RIYT,0.926
16,KLDT,≤ 0.2
17,SLTE,≤ 0.2
18,RTWW,0.293
19,LRNI,≤ 0.2
20,GTPE,≤ 0.2
21,TEPV,≤ 0.2
22,QYRQ,≤ 0.2
23,FGMV,≤ 0.2
24,TTLA,≤ 0.2
25,QPIM,≤ 0.2
26,NTCG,≤ 0.2

row,Variant,one-hybrid fitness for binding parS DNA
1,SDYR,≤ 0.2
2,QGGR,≤ 0.2
3,PCRH,≤ 0.2
4,PWTN,≤ 0.2
5,LWHL,≤ 0.2
6,QSNL,≤ 0.2
7,PVNH,≤ 0.2
8,MLKH,≤ 0.2
9,QVRQ,≤ 0.2
10,PHTI,≤ 0.2
11,CMWL,≤ 0.2
12,SSGM,≤ 0.2
13,HHSS,≤ 0.2
14,ACRT,≤ 0.2
15,AGGL,≤ 0.2
16,QKHT,≤ 0.2
17,KPLS,≤ 0.2
18,RGSY,0.226
19,YCKC,≤ 0.2
20,PEQG,≤ 0.2
21,TRSD,≤ 0.2
22,TYWM,≤ 0.2
23,MRWG,≤ 0.2
24,RETR,≤ 0.2
25,DCLK,≤ 0.2
26,RPWL,≤ 0.2

row,Variant,one-hybrid fitness for binding parS DNA
1,DRVL,≤ 0.2
2,KCTY,≤ 0.2
3,FWRG,≤ 0.2
4,AQPL,≤ 0.2
5,KWLS,≤ 0.2
6,THAH,≤ 0.2
7,YCRS,≤ 0.2
8,TEKN,≤ 0.2
9,IGSL,≤ 0.2
10,PADH,≤ 0.2
11,VMQF,≤ 0.2
12,KSPT,≤ 0.2
13,PDSD,≤ 0.2
14,VTML,≤ 0.2
15,DSPV,≤ 0.2
16,HPME,≤ 0.2
17,IVGC,≤ 0.2
18,NLLY,≤ 0.2
19,ADTL,≤ 0.2
20,TSIG,≤ 0.2
21,AHVW,≤ 0.2
22,VQVF,≤ 0.2
23,SHVL,≤ 0.2
24,DSKS,≤ 0.2
25,LNRS,≤ 0.2
26,EYHD,≤ 0.2

row,Variant,one-hybrid fitness for binding parS DNA
1,SKIM,≤ 0.2
2,SKCR,≤ 0.2
3,STIL,≤ 0.2
4,KLRC,≤ 0.2
5,IKCS,≤ 0.2
6,HING,≤ 0.2
7,CTCI,≤ 0.2
8,GDMC,≤ 0.2
9,TAEM,≤ 0.2
10,PHGE,≤ 0.2
11,RYRK,≤ 0.2
12,SAYQ,≤ 0.2
13,LAWF,≤ 0.2
14,SPLI,≤ 0.2
15,AIHV,≤ 0.2
16,ILQN,≤ 0.2
17,RNYS,0.85
18,NPLM,≤ 0.2
19,SYGT,≤ 0.2
20,GSGS,≤ 0.2
21,IQKR,≤ 0.2
22,NRFA,≤ 0.2
23,DGSA,≤ 0.2
